Test results published in paper PMC4560833.
These are yes or no findings as the source states them, for the method shown. In cells and extracts the contact can be indirect. Some results given as binding are weak or reduced against the parent protein; the word gives no strength. For part of these data: Sequences can lack the tags named with a protein.

T1: endogenous Scap (human (endogenous in HEK293T)) (UniProt Q12770)
T1 sequence: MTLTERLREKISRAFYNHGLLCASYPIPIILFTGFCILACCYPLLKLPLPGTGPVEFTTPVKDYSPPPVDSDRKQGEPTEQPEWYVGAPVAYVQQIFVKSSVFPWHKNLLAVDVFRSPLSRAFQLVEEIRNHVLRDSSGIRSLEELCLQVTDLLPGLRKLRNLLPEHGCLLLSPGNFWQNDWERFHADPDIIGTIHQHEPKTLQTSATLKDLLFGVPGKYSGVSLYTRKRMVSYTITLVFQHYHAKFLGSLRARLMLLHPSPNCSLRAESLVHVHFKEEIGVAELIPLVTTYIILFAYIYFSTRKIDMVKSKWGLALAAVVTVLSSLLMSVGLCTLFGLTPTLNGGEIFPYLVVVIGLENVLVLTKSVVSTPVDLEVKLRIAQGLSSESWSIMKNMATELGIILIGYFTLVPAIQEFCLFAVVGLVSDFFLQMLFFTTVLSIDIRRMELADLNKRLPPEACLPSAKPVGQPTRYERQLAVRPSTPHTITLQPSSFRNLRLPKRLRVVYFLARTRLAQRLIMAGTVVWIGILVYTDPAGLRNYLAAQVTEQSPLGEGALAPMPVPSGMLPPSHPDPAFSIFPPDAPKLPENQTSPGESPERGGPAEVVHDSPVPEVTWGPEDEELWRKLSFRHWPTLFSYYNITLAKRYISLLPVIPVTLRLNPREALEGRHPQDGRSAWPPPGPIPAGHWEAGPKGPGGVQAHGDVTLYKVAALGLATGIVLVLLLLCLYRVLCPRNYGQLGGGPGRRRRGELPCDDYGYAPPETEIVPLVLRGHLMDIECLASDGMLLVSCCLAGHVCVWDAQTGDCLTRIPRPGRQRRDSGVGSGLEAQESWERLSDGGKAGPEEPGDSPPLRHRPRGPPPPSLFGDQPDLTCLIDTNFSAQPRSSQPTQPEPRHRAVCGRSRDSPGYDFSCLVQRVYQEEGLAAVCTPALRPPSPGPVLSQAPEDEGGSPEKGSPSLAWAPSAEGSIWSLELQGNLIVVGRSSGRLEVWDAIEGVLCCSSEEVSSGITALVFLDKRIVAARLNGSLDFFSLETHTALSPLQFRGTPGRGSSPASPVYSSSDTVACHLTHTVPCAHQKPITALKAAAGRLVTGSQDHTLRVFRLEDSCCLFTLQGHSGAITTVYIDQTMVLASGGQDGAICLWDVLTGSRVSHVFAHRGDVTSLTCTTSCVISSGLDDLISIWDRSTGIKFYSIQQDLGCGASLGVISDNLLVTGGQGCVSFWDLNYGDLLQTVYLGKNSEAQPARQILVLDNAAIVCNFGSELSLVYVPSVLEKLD

T2: endogenous SREBP-2 (human (endogenous in HEK293T)) (UniProt Q12772)
T2 sequence: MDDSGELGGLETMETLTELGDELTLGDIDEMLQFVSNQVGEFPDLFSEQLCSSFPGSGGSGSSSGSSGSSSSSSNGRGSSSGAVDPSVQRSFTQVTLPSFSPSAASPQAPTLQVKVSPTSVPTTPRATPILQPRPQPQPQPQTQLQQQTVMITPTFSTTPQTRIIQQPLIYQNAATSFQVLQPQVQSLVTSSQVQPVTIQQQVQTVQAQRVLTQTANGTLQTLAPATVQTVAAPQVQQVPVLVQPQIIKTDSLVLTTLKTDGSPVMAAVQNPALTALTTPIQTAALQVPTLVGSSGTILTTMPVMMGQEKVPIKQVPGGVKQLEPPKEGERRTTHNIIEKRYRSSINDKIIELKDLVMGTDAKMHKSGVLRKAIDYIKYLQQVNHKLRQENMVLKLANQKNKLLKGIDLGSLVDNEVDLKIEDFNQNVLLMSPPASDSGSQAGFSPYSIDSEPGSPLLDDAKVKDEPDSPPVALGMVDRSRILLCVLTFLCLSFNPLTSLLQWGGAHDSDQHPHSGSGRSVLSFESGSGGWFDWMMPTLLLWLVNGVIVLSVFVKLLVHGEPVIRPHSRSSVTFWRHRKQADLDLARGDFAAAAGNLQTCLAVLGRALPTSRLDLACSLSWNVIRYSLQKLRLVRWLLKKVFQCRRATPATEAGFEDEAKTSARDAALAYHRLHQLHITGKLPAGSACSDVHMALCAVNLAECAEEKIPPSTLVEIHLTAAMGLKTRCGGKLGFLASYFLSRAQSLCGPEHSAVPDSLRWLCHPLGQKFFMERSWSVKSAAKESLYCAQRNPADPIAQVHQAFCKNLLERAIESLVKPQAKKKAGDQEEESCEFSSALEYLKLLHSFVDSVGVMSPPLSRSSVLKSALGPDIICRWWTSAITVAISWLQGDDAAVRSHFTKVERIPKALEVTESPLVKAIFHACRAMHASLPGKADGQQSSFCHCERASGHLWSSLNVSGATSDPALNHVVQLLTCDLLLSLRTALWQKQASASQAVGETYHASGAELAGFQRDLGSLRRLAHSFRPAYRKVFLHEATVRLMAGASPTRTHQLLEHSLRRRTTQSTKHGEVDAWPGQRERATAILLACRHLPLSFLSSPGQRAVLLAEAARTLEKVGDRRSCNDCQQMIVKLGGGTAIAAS

T3: Myc-tagged Scap (SREBP cleavage-activating protein) (UniProt Q12770)
T3 sequence: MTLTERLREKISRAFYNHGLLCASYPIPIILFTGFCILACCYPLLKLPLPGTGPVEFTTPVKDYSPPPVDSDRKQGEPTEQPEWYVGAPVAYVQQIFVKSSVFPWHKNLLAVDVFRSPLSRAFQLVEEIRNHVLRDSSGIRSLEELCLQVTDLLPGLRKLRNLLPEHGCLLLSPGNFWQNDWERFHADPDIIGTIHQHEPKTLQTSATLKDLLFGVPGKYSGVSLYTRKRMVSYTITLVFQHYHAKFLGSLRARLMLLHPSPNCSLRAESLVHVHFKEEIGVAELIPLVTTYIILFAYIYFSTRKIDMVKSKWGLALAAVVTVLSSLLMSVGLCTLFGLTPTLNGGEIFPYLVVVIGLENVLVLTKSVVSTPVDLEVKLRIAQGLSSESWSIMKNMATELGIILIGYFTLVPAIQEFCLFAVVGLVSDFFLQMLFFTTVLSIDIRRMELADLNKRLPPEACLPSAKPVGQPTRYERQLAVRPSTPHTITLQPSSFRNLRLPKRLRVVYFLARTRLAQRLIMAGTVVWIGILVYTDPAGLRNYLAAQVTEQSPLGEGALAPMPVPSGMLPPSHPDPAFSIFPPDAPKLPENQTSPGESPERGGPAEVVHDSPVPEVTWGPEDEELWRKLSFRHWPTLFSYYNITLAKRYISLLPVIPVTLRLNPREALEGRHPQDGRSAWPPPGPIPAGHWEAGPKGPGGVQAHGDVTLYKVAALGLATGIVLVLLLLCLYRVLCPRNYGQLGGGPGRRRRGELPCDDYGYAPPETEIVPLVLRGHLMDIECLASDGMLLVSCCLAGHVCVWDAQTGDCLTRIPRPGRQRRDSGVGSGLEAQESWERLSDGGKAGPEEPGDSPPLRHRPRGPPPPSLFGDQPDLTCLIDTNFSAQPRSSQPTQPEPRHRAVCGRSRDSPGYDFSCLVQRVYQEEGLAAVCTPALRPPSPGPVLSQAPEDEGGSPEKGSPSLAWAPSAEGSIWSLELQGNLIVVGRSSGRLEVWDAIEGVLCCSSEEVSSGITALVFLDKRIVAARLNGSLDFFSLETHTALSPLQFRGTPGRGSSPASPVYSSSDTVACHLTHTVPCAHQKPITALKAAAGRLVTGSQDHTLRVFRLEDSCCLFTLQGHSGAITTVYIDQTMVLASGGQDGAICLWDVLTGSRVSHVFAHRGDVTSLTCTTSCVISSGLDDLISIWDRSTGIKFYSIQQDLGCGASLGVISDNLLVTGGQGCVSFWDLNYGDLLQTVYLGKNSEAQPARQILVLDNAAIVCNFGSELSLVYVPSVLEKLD


Experiments:
[1] = biological target: T1, endogenous Scap (human (endogenous in HEK293T)); assay: co-IP; endogenous proteins in HEK293T cell lysate; IP and IB with the antibodies as indicated
[2] = biological target: T2, endogenous SREBP-2 (human (endogenous in HEK293T)); assay: as above
[3] = biological target: T3, Myc-tagged Scap (SREBP cleavage-activating protein); assay: co-IP; two-step co-immunoprecipitation; 293T cells transfected with Myc–Scap, Flag-SREBP-2 and GFP–PAQR3; first IP anti-Myc, elution with Myc peptide in 250 mM NaCl; second IP anti-GFP or control IgG

Row | Binder | binding [1] | binding [2] | binding [3]
1 | endogenous PAQR3 (protein, UniProt Q6TCH7 1-311) MHQKLLKSAHYIELGSYQYWPVLVPRGIRLYTYEQIPGSLKDNPYITDGYRAYLPSRLCIKSLFILSNETVNIWSHLLGFFLFFTLGIYDMTSVLPSASASREDFVICSICLFCFQVCMLCSVGYHLFSCHRSEKTCRRWMALDYAGISIGILGCYVSGVFYAFYCNNYWRQVYLITVLAMILAVFFAQIHPNYLTQQWQRLRSIIFCSVSGYGVIPTLHWVWLNGGIGAPIVQDFAPRVIVMYMIALLAFLFYISKVPERYFPGQLNYLGSSHQIWHILAVVMLYWWHQSTVYVMQYRHSKPCPDYVSHL | binds | binds | –
2 | GFP-fused PAQR3 (protein, UniProt Q6TCH7 1-311) MHQKLLKSAHYIELGSYQYWPVLVPRGIRLYTYEQIPGSLKDNPYITDGYRAYLPSRLCIKSLFILSNETVNIWSHLLGFFLFFTLGIYDMTSVLPSASASREDFVICSICLFCFQVCMLCSVGYHLFSCHRSEKTCRRWMALDYAGISIGILGCYVSGVFYAFYCNNYWRQVYLITVLAMILAVFFAQIHPNYLTQQWQRLRSIIFCSVSGYGVIPTLHWVWLNGGIGAPIVQDFAPRVIVMYMIALLAFLFYISKVPERYFPGQLNYLGSSHQIWHILAVVMLYWWHQSTVYVMQYRHSKPCPDYVSHL | – | – | binds
